± gives the standard deviation of the averaged measurements. Over roughly 4,100 sequences, “arbitrary fluorescence units” has its median near 780; the highest 2% begin near 22,000. The list shows a part of the results.
Molecular target: T1, ETS1 (UniProt P14921)
T1 sequence: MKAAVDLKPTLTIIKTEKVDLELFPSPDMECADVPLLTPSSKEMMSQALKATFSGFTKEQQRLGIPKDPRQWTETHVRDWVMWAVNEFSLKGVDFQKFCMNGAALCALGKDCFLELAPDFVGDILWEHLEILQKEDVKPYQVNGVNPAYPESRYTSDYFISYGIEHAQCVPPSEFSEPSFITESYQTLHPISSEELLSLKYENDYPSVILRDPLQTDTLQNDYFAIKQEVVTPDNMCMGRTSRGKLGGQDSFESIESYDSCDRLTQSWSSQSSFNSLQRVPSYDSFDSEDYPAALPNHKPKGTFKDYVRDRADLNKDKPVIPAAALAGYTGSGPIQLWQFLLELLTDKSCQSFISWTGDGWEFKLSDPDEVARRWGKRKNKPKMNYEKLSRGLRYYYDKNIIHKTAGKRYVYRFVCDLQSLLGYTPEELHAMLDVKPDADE
Assay: ETS1 binding intensity (PBM fluorescence), ETS1 alone (arbitrary fluorescence units); higher = stronger binding
Conditions: ETS1 concentration 1 nM; RUNX1 concentration 0 nM
Description: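 gcPBM on 36-bp genomic-derived probes (partner site mutated) containing one ETS1 site and no RUNX1 site. Recombinant human ETS1 (1 nM) was incubated alone or with RUNX1 (25 nM) and detected by anti-ETS1 antibody fluorescence. Values are medians over 4 replicate spots (not normalised). The probes sit in constant array flanks that are not printed.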

| Sequence | ETS1 binding intensity |
| --- | --- |
| CAACCCAAGGGGATGTGCTCACTGGGGTGAGGAGGC | 412 |
| CCATTTCCGCGCACGTCTGCAGATTCGGTAGTCGAT | 9320 |
| TCCCCCAGCGCACAGGCAAACCATTTCCTCTTCTGC | 1060 |
| AATGAGCCCCAGAACCCTTTTCCTTCCGGCCTGCAC | 1300 |
| GTTTACAAATCCAAGCCCTTGACGTCTTCCTGGACC | 347 |
| CAGGCTGCTGTTGAAATGCATCAGCTCTTTCCTGCC | 372 |
| CCCCCTGGGGTACAAATGTCCCGGAAGCCGCGAACC | 1040 |
| TACTTAGAGGAAATGTGGCCTGTTGTCTTGTCTCAC | 795 |
| ACTGCCGAAACTAGGGGCAGCTCTACTTCCGGTGCC | 10100 |
| CACCCTGGCCGTGGTGAGTTCCGCCTGCTTGGGGAT | 583 |
| CTTCAAAGTCAGGAAACCGTTAAACTACACTGCATC | 683 ± 79 |
| CCAACAGTACCCTTCCTCCCTTAACCCCAAGACTGA | 509 |
| GGCCTCAGCGGCGCCGCGACAGGAAGCGGCGGGCGA | 2020 |
| GGTTTCCGGGTGAAAAAAAAAAAAAAATCCACGCCA | 15200 |
| GCGGGAGTGCAGTCTGTGCCGTTCCGGCCAGGAGTT | 283 |
| TTTTTTCCGCCTGTAGGGTCACATTGGGGTTGATTG | 2790 |
| CCCCGTCCGGGGAGGAGCGAGGCCCGAGGTTGTCCC | 693 |
| CAGTAGGCTGCTGTTGCGCGCGCCGGATGTGGGCCC | 1160 |
| GCGGGAGGCTTCCTCACATTAGCGCTCCGCGTAAGT | 498 |
| CGGCCTGCAGCAGAACAGCCAGCGCACTTCCTCCTC | 512 |
| GCACAGCGCTCTATTTCACCTCAGGAAGCTTCCCCC | 329 |
| TCCCCCACTTCCTGGCAGCAGCAGTGTGCTGAGGAG | 11000 |
| CCATTGGCGGGCGGCTTGAATGACGGAAGTGACGGC | 872 |
| AGGCCCGGATACCCGCCCCCAAATCCGCGTCCACAA | 584 |
| CTGCCAACCTGTGAGCGCCTGGCTTCCTGCCTGGGC | 1020 |

| Sequence | ETS1 binding intensity |
| --- | --- |
| TGAAGGAAGGGGGCTGTTTGCAGATAATCACAGCCT | 432 |
| CTCCGCTCACAGCAACACAGGCGCTTCCTTGTGCAG | 521 |
| GTTGCAAAGGCGCCTACAACTACTTCCGCTTCTAGT | 4670 |
| GGCACAGCTTGTAGCCAGAGGGAGGAAGAGAGAGGA | 354 |
| TGCCACATCCTGCCCCTCCCCAGGTCTAAGCACCAA | 12400 |
| TTGGGGTTTATACCCCATCTACTTTCAGGAAGGGTT | 349 |
| ATAAAGGATGTACAGTATTTAGAGAACAGTGGATAA | 909 |
| AAAGACAGGATGTGGGGGAGTGAGCTACAAGGGCCC | 6650 ± 640 |
| ATTTAGGAGGAAGTTTCCAGTACGACAACCTCACAG | 641 |
| ATCCCCAAGCAGGCGGAACTCACCACGGCCAGGGTG | 327 |
| GCATGCGCCAGAGACCATGCACCGGATTGGGCGCCT | 281 |
| GGCCTCCTTCGGAAGCTCCCCTCCACCCTCAAGCAG | 304 |
| AGGAGCCGGAAGTCCCGCCCACGCACCCCCCGTAGG | 8920 |
| CCCTCAGCGGAAGTGGAAGCTGTAGTTTCCAAAGGC | 7590 |
| CCGCCGGGCTTCGGCGCTGGAACCGGACCAATCCGG | 305 |
| GCCACGGTGCCTGCCGGGACAGCGAGTTCCGCCGGG | 419 |
| GGCGGGGCATCCGGCAGCACCGCCTGCAGGCGCCCG | 4900 |
| TCGGTCTACGGCTGCGCACAGCGCGAGGAAGCGCGG | 473 |
| CCTGGCCGCCTATCAAATCTTGCCACTTCCTGCTCG | 1430 |
| GCCTTCCGCCGTCTGCTAGGCGTGTCGCCGTAGGAG | 3670 |
| AGAGCTTGGGGGGAGGAGCCCTCTTCCTTCCTGCCC | 1050 |
| TGTCTTCAGGAAGTGTAGCAGGTGTTGGGGTCAAGC | 1160 ± 47 |
| TTCATCTACTTCCCGCCACACCTACAGAGAAGCCCA | 2480 |
| AATATCCTGTATGTCATGCTTAAAAAGTCACAAAAC | 18100 |
| CAAAAGTGGATGATGAACATTAGAATCAGGAAATGG | 488 |

| Sequence | ETS1 binding intensity |
| --- | --- |
| GAAGCGCTGGGCGGAAGTGGCTGTGACTTTGCCCTT | 3970 |
| GGGTTTTGTAGTTAGCAAGTTCCTGCTTCCGTCGCA | 1350 |
| CTTCATCAACCCATCCTGTCTTGTAGTTAAGTCAAG | 1490 |
| CTCCCGTCCCCTCAGAGTGCAAGGATGTGAACAAGG | 391 |
| GGGCTTCCGGCTGAACCCATGGCTGAGGGCTGTGCT | 11300 |
| TTTCTTGCCACTAGGGGACGCTACTTCCCTGAGGCT | 353 |
| AGTGCTTTGCCGTATAATACTGCACATCCTGTGTTG | 1300 |
| TGAGGTTGGGGTTAGGCAGGAGGAAGCCGTTTGTAG | 518 |
| AGGCAGGGAAGTGGCGCAGAGGAGAGCACAGGACAC | 431 |
| GCGAGCACTTCCGGTGTGTGAGCCTGCTGTTGCTAC | 32800 |
| GGACTTCCTGAAGCCAGATCGGTTTATCACAGTCAG | 9710 |
| GGACGCTTCCGGTGGAAGGGAGCTGTTACGGGGCTT | 32900 |
| TTGCATGTAGTTTAGGCTGTAGTTTCCTCCTGTAGT | 534 |
| ACTAGCGTCGCCGCGCCAAGGTTCCGGTCCGGGTCT | 1020 |
| CCCTGGGGTTCGCGGGCGAAGCGCTTCCTCTAGCTG | 401 |
| AGCGAAGCGCCTACGGCAGCCGGAAGCGAAAGTCTC | 6300 |
| TAGCCTTGTGTTGGAAGCAAATCCTGTCTCAGAGGG | 414 ± 34 |
| GGCGTTCTGGGCGGCGGCGCGTTTCCCCGGCTCCGT | 323 |
| TTTAATTCTGTGATTAGAAGTAAAAGGAAGTAAAGG | 487 |
| CTGGGGCTGGGACCCAGTTCCTGTACAGGAAGACAT | 3020 |
| CCATTTCCTGATTCTAATGTTCATCATCCACTTTTG | 10900 |
| GAGACTCCCGCCACCTTGGCCGTTTCCCCGGCTCCA | 333 |
| TCCGGCCCCGGAGCGCTGTGAACTCCATTTCCCAGA | 351 |
| GGCCTACGGGAGGGCCCGCCTTGGCTGCTTCCGCAG | 310 |
| AAATGAGCGGAGGTTGAGCCCTACTTCCGGTGGTGC | 14100 |

| Sequence | ETS1 binding intensity |
| --- | --- |
| CGGTGCACCCCAGCTACGGAACAGGATGTGGAGAAC | 1510 |
| AGAGGATTGTAGGCTCACAAGCCAACATCCTGACAG | 515 |
| GCAGGACTCCAGGAAGCCCGCGCAGCCGCCAAAAGC | 552 |
| GTGCGAGGGCGATAAGTGGAAGGAAGCAGCGCATGG | 403 |
| AGTGGCTACCACTTCCTTCTCTTACGACAGTTCCTT | 2590 |
| TGCAGCCGCCGCGTCCGGTCCAGCCCCAGGGCCATG | 5080 |
| TCCCTTCCTCCTCCCTCAGCCATATACGGTGCTGTA | 1170 |
| AGGCAAACAGGATGTTCCTCTCCCAAATGCAGACTT | 6900 |
| AGTCAAACAGGATGTGGCTGGGGAGGCGGCTGTCAC | 11100 |
| CTCCGTTAGGAAATACTATGCAGCCACGTCCAGCAT | 404 |
| ACCGAAACTACGGCCCAGCAAAAAGGGAAGTAGGGG | 507 |
| GGTTTTGCGCTCACAGCCGCCGGAAGTGGCTCCGTG | 4350 |
| GCACCCGGCACTACTTCCCGACCCGCCTCCCCCGCC | 603 |
| GACCCGCTCACAAGACCTGCCCCTTCCGGGTCCGTT | 618 |
| GCCACCTCTTCCTGTGTTGCAAATCACAGGTCCACC | 6690 |
| ACTACATTTCCCAGGAGGCTTCACGGTGAGCCTCCG | 393 |
| CTGTAGGTTCGGCAGTAAACTCTGACTTCCTATTTA | 462 |
| CGGCGGTGCCGGTAGCTCCACTTCCGCTCCGATCGC | 8130 |
| GCAGGACTTCCTGTGTTGTGCTAACCCCAAATTACA | 22100 |
| CAAGCCACTTAAGTGTCCTCTGTAACCGTCCGGGGG | 554 |
| TCAGGAGCCACGGACGGGCGGGGCTTCCGGGAGCAA | 1170 |
| CGAAGCCAGGAAATAAGGATAAATCACAGAAAGAAA | 1710 |
| ACCCCCCAACTACAAGGCCCGTTTCCTGCCTCCCCA | 3000 |
| GTTTATCACAGGACTCAAGTCTACATTTCCTGTCTC | 2180 |
| CCCGTGCACCCCAGCCTTACGGGGAAGTGCTCAGGG | 419 |

| Sequence | ETS1 binding intensity |
| --- | --- |
| CACCCAAGGATATGCTTTTTTTTGGCAAGTCACATC | 604 |
| CAGGGAAGTTCGAACTGGGCGGGGCCCACCCCAGTT | 480 |
| GTGTTCAGACGGAAGCGTTATTCAGTGGCCAGAGCA | 900 |
| CTCAGGTTATCTAGGAAATCTACCGTACGCTAAAGT | 413 |
| CAACAACCGGAAGTGGGGCGGGCCGTAGTACCCGCC | 35100 |
| TGCAGCTTCCTCCCGCTGCTCCGCCCAGCGGATTCT | 2710 |
| AAGCCCCGTAACAGCTCCCTTCCACCGGAAGCGTCC | 1590 |
| ATACATACAGGATGACATTTGTCCTGTGAGCACCAG | 497 |
| CTTATCACACGCCGCGAACGCCTTAACTTCCGGTCC | 7950 |
| TATCAATAAGGAAGTACAATCACCAAACCCCAAGCC | 677 |
| GAGGTGGTACCCCAGGCCGCGTTGACCGGAAAGTAG | 455 |
| GCCAACAGTGCTTTCGCCCCGCTTCCTGCGCCCCGC | 1050 |
| TGGGGACAGGAAATGTTTACTGCCTGTGACTTGCTG | 3460 |
| CACTCCCCTCCCGAGGTCACACTTCCGGCGGCCACC | 7960 |
| GCTGGGGCTGCCGCCATCATGGTGCGGAAGCTTAAG | 383 |
| TAGGCAGGCAGGATGTGCCTATAAGCTACATGAATG | 2460 |
| GGGCGGGTCAGCGGAAGTGAGGGCGGGTGAGGCTGG | 6120 |
| CAGCTTCCGGGCTAATTAGCAGTCACGGTGTGCCGC | 19800 |
| TGTATAACATCCTCATGTTCTGAGGGTGAGTTGAGC | 2030 |
| CACCGGAAAAGGCAAGCGCGGCCGCGCGCTTGGCGC | 3740 |
| GCCCTCACCGAAGTTCCTGCCCAACGACATCCGGGT | 2390 |
| CTTGTGCAGCTGCTGTTCTCAGCATCCGCGGGCGGA | 331 |
| ATCAAAGAACGGATATTGCTGTGACACCGAGGGGAC | 1980 |
| CCATCCAGGAAGCTTATGGTGCAACAGCAGTGTGCC | 1190 |
| ACACCCCAGGAAGTGGCAGAGACTACAACAAGTCAG | 2890 |
